Read counts are not given, so values of variants with three or more changes are uncertain.
B1: LINE1-mini (parent)
chain: GGCAGAGCUCAACACAGCGUGGCAAAGUGGCUGUGGCUAGACUGCC

Variants of: B1
Test: self-cleavage, relative activity (ratio to wild type); higher = more cleavage; in vitro, sequencing; the parent is a self-cleaving ribozyme

Variant | self-cleavage
A11U C13G C23A C46A | 0.04
C8G A16C G22C G27U | 0.06
G5U A14C G40C G44C | 0.02
C3U G5A U9A C42A | 0.27
A4G G17A C18A G29C C42U | 0.03
C31U U32A G40A | 0.04
C10A A16C G44C | 0.04
G2C C13U C15A G40U | 0.02
G5A U20A U34C | 0.04
A4G A6C C18A G19U | 0.25
C3G C10A A24U | 0.09
G2U G29C C46A | 0.1
C23U U43A G44C | 0.03
C3A A4C C15U G21U C42U | 0.11
C10A A26U C31U U38G A39G G44U | 0.02
G1C A4C C13G A26G U32C | 0.01
G1U G29A G30C | 0.08
U9A G17A G35A | 0.2
G1C C8A A16C A25G U28G U32G G40U | 0.01
A6G A11U G19U C37G | 0
G5A C13U A39U | 0.51
A6U C10A C42G | 0.04
G1U U38A C46U | 0.16
G27U U34C A41G | 0.05

Variant | self-cleavage
A4G A6C G19U G30A | 0.2
C3U C10A G30A C46A | 0.03
A4U C18A A41U | 0.02
G2U A11U C13A | 0
C8U C10U C13G A26U C31A C42G U43C C46G | 0.04
A11G G19A G21U | 0.02
G2C C10A G17U | 0.03
U20G G30U C31A G36A | 0.03
C13G C15A C18G G40U | 0.03
G7A C23A C45A | 0.05
C3A C13G U28A G33A C37U G40A A41G | 0.04
C3A C37G A41G | 0.18
A14U G35C G36U A39U | 0.07
G19U G27C G44C | 0.28
A4C G19A G27C C31U G36C | 0.06
C3G G7U A24U A39G | 0.08
A12U C13U G22A A25G G29C G36A | 0
C10A G21A C23A U28A | 0.01
G21U C23G G35A | 0.11
A26U C31A A39C C45G | 0.04
A4G G27U G36U | 0.1
G29U G40U C45U | 0.23
G7U U9C U20A | 0.01
G2A G5A G29A G33A | 0.19

Variant | self-cleavage
G2A G29C A41G | 0.14
C18G U38C C42A G44C | 0.02
A12G U28G G36C U43A | 0.01
A6G G30U C31A G36U C42A | 0.09
G1C C15A G19C | 0.02
A4C G27A C37A | 0.07
G2U A14U G22A G35U A39U G40U C42A | 0.02
C3A C15U C46A | 0.34
A6C C18G G36C | 0.06
A14G U28A U43A | 0.03
U9A A24G G29U | 0.15
G7A U9G C10A U38A A41C | 0.01
A16G C18A G27C G36U | 0.01
G2U G7A U9G A11C G17A | 0
G7C C18A U43A C45A | 0.01
G5U G27U C31U | 0.01
G19A U34C C45G | 0
G2U C10G A16C G22A G33C | 0.01
C23A A24U G29C G35C A39U | 0.02
G5U A11U G22A A25C | 0.03
A4U A6C U9G C10U C13U U43C | 0.03
C18U A24C G29C | 0.18
C31A U34C C37A | 0.23
A25U U28C C42G G44A | 0.08

Variant | self-cleavage
G33U C42A U43A C46A | 0
C18A G30C C46A | 2.6
G2C G22U C37U | 0.08
A6G G19U C23U G33A | 0.06
G7A C8A A14G U20G | 0.21
G1U C10A G17U A24U G29A | 0.02
G5U A26U G44U | 0.04
G22U U43A G44C | 0.15
C8U U20C G22C A25U G30A A41C | 0.09
C13U C31G U34A | 0.09
G5U G7A A11G U28C U32G C37A | 0.01
G21A A39U A41G | 0.6
G17A G22U A26C G33C G40C U43G | 0
C10U A12U G44U | 0.03
C31U A39G G40C | 0.03
A24U C31U G35A | 0.09
C8G G21A A39G | 0.03
C8U C10G G33A | 0.02
A11G A12C G17C G30C U32A | 0
U9C G29U U38C | 0.04
G7A C8U U9G A12G C31A G36U | 0.21
A11C C18A A24C | 0.31
U9G G21A G27C C37U A41U C45A | 0.04
C3A C8U G19C | 0.15

Variant | self-cleavage
G21C A26U U38C G44U | 0.06
G2C G19A U20A | 0.07
A6U G7C C18A | 0.08
A12G A16C C18A G21A U34A G35C C42G | 0.01
C8G C13G C37G A41C C45A | 0.06
G2A C8U C10A A12U A14G G27U U28A G30U A39U | 0.01
G17A C23A G27C | 0.54
C3U U34C C46U | 0.05
G17U G27U G35U | 0.06
A12G G22C C31A | 0
C8G A12C G22U | 0.03
C10A A25G U43C | 0.01
G2C C8A A11U G17C G19C | 0.01
A6U U9A U20C U32A C37G A39C C45A | 0.04
A12U C13G A39U | 0.39
A12C G17C G27C | 0.02
U20C G22A G35U | 0.11
C10A A11C U28C G29C | 0.01
A14G A24C G30C A41C C42G G44U | 0.07
C8U A25U G27A G40U | 0.34
G2A C8A G35U C45G | 0.48
G5C G7C C45A | 0.11
G5C G17C A25U U43A | 0.03
G1U G5U G17A U43G G44A | 0.01

Variant | self-cleavage
U9A A11G G33C C37U G40A | 0.02
A26U G35A C37G C46U | 0.03
G2A A4G G7A G30A C31A G44C | 0.23
U20C G44A C45U | 0.06
C8A A24G A25G A26G G29U | 0.01
C18U G21C G35U | 1.01
G2U G5A A12G G40U | 0.05
A4U A11G A14G U43C | 0
C18U U20A U28G G44U | 0.08
A14G G21U G35U C42U | 0.11
A4G U9A A24C | 0.37
A16G C18U G21A | 0.48
G7A C10A A26C G33A G35A | 0.02
G17A G27C C42A | 0.01
C3U A4G A14U U20A | 0.08
G2C C10G G29C G36U | 0.01
C3G A6G C10A G17C C37U | 0.01
G1U A16U G17A | 0.12
G5C A11G C13A C37G G40A C45A | 0.01
A16U U20G C37U A39C | 0.01
C13U A25C C31A U34G G35A | 0.08
C15A G17C A25C G36U | 0.06
G5C G19C G22C C31A | 0.01
C3U A6C G17A U28G | 0.08

Variant | self-cleavage
G2C A26C C31A G35C C46G | 0.02
G17C U20G U28C G44C | 0.07
A16U G29U G35C U38G | 0.02
G7U G29U G35U | 0.05
G1A U9A A11U G33U A41G C42G | 0.01
G5A G7U C10G A12G | 0.04
G2C G17A G40U | 0.02
G5C G30A U34G U43G | 0
A14G C15U U43A C45U | 0.04
G7U A12C G21U G30A U38G | 0.01
G5U U9A G17U | 0.08
C23G C31G G40U | 0.01
C10A G21U A24C U28A C31A | 0.03
G19C C23U G33C | 0.08
C18G G36A U38A | 0.13
G5U C8A C10G | 0.02
A4G A11C C23G G33U G44C | 0.01
C10U G19A G35U C45A | 0
G5U U20G G22U A24G G36U | 0.01
G1U C3G G21U | 0.07
C15A A16G U32G C42A | 0.12
G2C G5C C46A | 0.03
C3G U9G C31G U32A C37G | 0
